In the supplement of paper PMC9446081:
The campaign covered roughly 39,000 compounds. About 220 (0.56%) showed activity. Some of the results follow.

These molecules were tested on Escherichia coli K-12 BW25113 (assay: relative growth (OD600 normalised to plate interquartile mean) (fraction); higher = less growth inhibition, active = 0.2 or less). Settings: 50 µM; LB; incubation time: overnight (16-24 h).
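Further: static incubation at 37 °C against the wild-type strain, values averaged over two biological replicates.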

Which relative growth does the source give for `C[C@@H]1CCCCO[C@@H](CN(C)C(=O)c2ccccc2)[C@H](C)CN([C@@H](C)CO)C(=O)c2cc(NS(=O)(=O)c3ccc(F)cc3)ccc2O1` here?
Its relative growth is inactive: 1.

`COc1ccccc1C#Cc1cnc2c(c1)C(=O)N([C@H](C)CO)C[C@@H](C)[C@H](CN(C)C(=O)c1ccc3c(c1)OCO3)O2` was tested. Which relative growth did it give?
Its relative growth is inactive: 1.01.

`C[C@@H]1CCCCO[C@@H](CN(C)Cc2ccncc2)[C@H](C)CN([C@@H](C)CO)C(=O)c2cc(NC(=O)Nc3ccc(C(F)(F)F)cc3)ccc2O1` was tested. Which relative growth did it give?
Its relative growth is inactive: 0.995.

For `C[C@@H]1CN([C@@H](C)CO)C(=O)Cc2cc(NC(=O)Cc3cn(C)c4ccccc34)ccc2O[C@@H]1CN(C)Cc1ccc(Oc2ccccc2)cc1`, which relative growth is on record?
The relative growth was inactive: 1.

For `Cc1ccc(S(=O)(=O)N[C@H](C(=O)NCCn2cc(-c3cccc(/C=C/C(=O)NO)c3)nn2)C(C)C)cc1`, which relative growth is on record?
Its relative growth is inactive: 0.999.

How did the relative growth turn out when `COC(=O)[C@@H](Cc1ccc(-n2cc(-c3ccc(C(=O)NO)s3)nn2)cc1)N1CC2=C[C@H](C3CC3)n3c(=O)n(C)c(=O)n3[C@@H]2[C@H]1[C@H](O)Cc1ccccc1` was run?
Its relative growth is inactive: 1.

Which relative growth does the source give for `C[C@@H]1CN([C@@H](C)CO)C(=O)c2cc(NC(=O)NC3CCCCC3)ccc2O[C@@H](C)CCCCO[C@@H]1CN(C)S(=O)(=O)c1ccccc1` here?
The relative growth was inactive: 0.991.

`C[C@H](CO)N1C[C@H](C)[C@@H](CN(C)Cc2ccc(Cl)c(Cl)c2)Oc2ccc(NC(=O)Nc3ccc(F)cc3)cc2C1=O` was tested. Which relative growth did it give?
The relative growth was inactive: 0.99.

With `C[C@@H]1CN([C@H](C)CO)C(=O)c2cccc(NC(=O)C3CC3)c2O[C@@H]1CN(C)C(=O)Nc1ccc2c(c1)OCO2` as the molecule, how does the relative growth read?
The relative growth was inactive: 0.976.

With `COCCOC(=O)N1C(=O)[C@@]2(c3cc(C#CCNC(N)=O)ccc31)[C@H](c1ccc(O)cc1)N1[C@H](c3ccccc3)[C@H](c3ccccc3)OC(=O)[C@H]1[C@@H]2C(=O)N1CCc2cc(OC)c(OC)cc2C1` as the molecule, how does the relative growth read?
Its relative growth is inactive: 1.01.

`C[C@H]1CN([C@@H](C)CO)C(=O)Cc2cc(NS(=O)(=O)c3ccc(Cl)cc3)ccc2O[C@H]1CN(C)Cc1ccc(Oc2ccccc2)cc1` was tested. Which relative growth did it give?
The relative growth was inactive: 0.983.

Which relative growth does the source give for `C[C@H]1CN([C@@H](C)CO)C(=O)c2cc(NS(=O)(=O)c3cn(C)cn3)ccc2O[C@H]1CN(C)CC1CC1` here?
Its relative growth is inactive: 0.979.

How did the relative growth turn out when `CCCNC(=O)Cn1c(=O)n(C)c2ccccc21` was run?
The relative growth was inactive: 1.01.

For `C[C@@H]1CCCCO[C@@H](CN(C)Cc2ccc3c(c2)OCO3)[C@H](C)CN([C@H](C)CO)C(=O)c2cc(NC(=O)Nc3ccc(C(F)(F)F)cc3)ccc2O1`, which relative growth is on record?
The relative growth was inactive: 1.01.

For `C[C@@H]1CCCCO[C@H](CN(C)Cc2ccc(C(=O)O)cc2)[C@@H](C)CN([C@@H](C)CO)C(=O)c2cc(NC(=O)Nc3cccc4ccccc34)ccc2O1`, which relative growth is on record?
The relative growth was inactive: 1.02.

How did the relative growth turn out when `C[C@@H]1CN([C@@H](C)CO)C(=O)Cc2cc(NC(=O)CCC(F)(F)F)ccc2O[C@H]1CN(C)Cc1ccc(Oc2ccccc2)cc1` was run?
Its relative growth is inactive: 0.966.

Which relative growth does the source give for `C[C@H]1CN([C@@H](C)CO)C(=O)c2cc(NC(=O)Cc3cn(C)c4ccccc34)ccc2O[C@H]1CN(C)Cc1ccc(Cl)c(Cl)c1` here?
Its relative growth is inactive: 1.01.

Which relative growth does the source give for `C[C@H](CO)N1C[C@H](C)[C@@H](CN(C)C(=O)Nc2ccc(F)cc2)Oc2c(NS(=O)(=O)c3cn(C)cn3)cccc2C1=O` here?
Its relative growth is inactive: 0.958.

`O=c1[nH]cnc2nc[nH]c12` was tested. Which relative growth did it give?
Its relative growth is inactive: 1.05.

For `C[C@@H]1CN([C@H](C)CO)C(=O)c2cc(NC(=O)CCC(F)(F)F)ccc2O[C@@H](C)CCCCO[C@H]1CN(C)C(=O)Cc1ccccc1`, which relative growth is on record?
Its relative growth is inactive: 0.989.

For `C[C@H](CO)N1C[C@H](C)[C@H](CN(C)S(=O)(=O)c2ccc(F)cc2)Oc2c(NS(=O)(=O)c3ccc(F)cc3)cccc2C1=O`, which relative growth is on record?
The relative growth was inactive: 1.02.

Which relative growth does the source give for `COc1ccc(NC(=O)N(C)C[C@@H]2OCCCC[C@@H](C)Oc3ccc(NS(=O)(=O)c4c(C)noc4C)cc3C(=O)N([C@H](C)CO)C[C@@H]2C)cc1` here?
The relative growth was inactive: 0.992.

Which relative growth does the source give for `C[N+](C)(C)CCCC[C@@H]1NC(=O)[C@@H]2C[C@H](C(=O)NCCCCCCNC(=O)CS)[C@H](c3ccc(O)cc3)N2C1=O` here?
The relative growth was inactive: 1.02.

With `C[C@@H]1CN([C@H](C)CO)C(=O)c2cccc(NC(=O)c3cnccn3)c2O[C@@H]1CN(C)C(=O)Nc1ccc(F)cc1` as the molecule, how does the relative growth read?
Its relative growth is inactive: 0.949.

For `Cc1ccc(CN(CCO)CCO)cc1`, which relative growth is on record?
Its relative growth is inactive: 1.01.

`C[C@@H]1CCCCO[C@H](CN(C)S(=O)(=O)c2cn(C)cn2)[C@H](C)CN([C@H](C)CO)C(=O)c2cc(NS(=O)(=O)c3ccccc3)ccc2O1` was tested. Which relative growth did it give?
The relative growth was inactive: 0.984.

How did the relative growth turn out when `C[C@@H]1CN([C@H](C)CO)C(=O)c2cc(-c3ccc(C(=O)N(C)C)cc3)cnc2O[C@@H]1CN(C)C(=O)c1cccnc1` was run?
The relative growth was inactive: 0.985.

Which relative growth does the source give for `COc1ccc(S(=O)(=O)Nc2cccc3c2O[C@@H](CN(C)S(=O)(=O)c2ccccc2)[C@@H](C)CN([C@H](C)CO)C3=O)cc1` here?
Its relative growth is inactive: 1.02.

`COc1ccc(S(=O)(=O)Nc2ccc3c(c2)C(=O)N([C@H](C)CO)C[C@H](C)[C@H](CN(C)Cc2ccncc2)O3)cc1` was tested. Which relative growth did it give?
The relative growth was inactive: 0.982.

With `C[C@H](CO)N1C[C@H](C)[C@H](CN(C)S(=O)(=O)c2ccc(Cl)cc2)OCc2cnnn2CCCC1=O` as the molecule, how does the relative growth read?
The relative growth was inactive: 0.987.

How did the relative growth turn out when `COc1ccc(CN(C)C[C@@H]2OCCCC[C@H](C)Oc3ccc(NC(=O)Cc4ccccc4)cc3C(=O)N([C@@H](C)CO)C[C@@H]2C)cc1` was run?
The relative growth was inactive: 1.01.

`C[C@@H]1CN([C@@H](C)CO)C(=O)c2cccc(NS(=O)(=O)c3ccccc3)c2O[C@@H]1CN(C)Cc1ccc(Cl)c(Cl)c1` was tested. Which relative growth did it give?
Its relative growth is inactive: 0.994.

With `C[C@H](CO)N1C[C@H](C)[C@@H](CN(C)Cc2ccccc2)Oc2c(NC(=O)C3CCOCC3)cccc2C1=O` as the molecule, how does the relative growth read?
The relative growth was inactive: 1.

Which relative growth does the source give for `C[C@@H]1CN([C@@H](C)CO)S(=O)(=O)c2ccc(C#Cc3cccc(F)c3)cc2O[C@@H]1CN(C)CC1CC1` here?
Its relative growth is inactive: 0.979.

With `CCOc1nc2cccc(C(=O)O)c2n1Cc1ccc(-c2ccccc2-c2nnn[nH]2)cc1` as the molecule, how does the relative growth read?
The relative growth was inactive: 1.03.

How did the relative growth turn out when `Cc1noc(C)c1NC(=O)N(C)C[C@@H]1OCCCC[C@H](C)Oc2ccc(NC(=O)Nc3ccccc3)cc2C(=O)N([C@@H](C)CO)C[C@@H]1C` was run?
The relative growth was inactive: 0.989.

With `C[C@@H]1CN([C@@H](C)CO)C(=O)c2cccc(NC(=O)Nc3ccc4c(c3)OCO4)c2O[C@H]1CN(C)Cc1ccc(C(=O)Nc2ccccc2N)cc1` as the molecule, how does the relative growth read?
The relative growth was inactive: 0.998.

With `NNC(=O)c1c(O)c2c([nH]c1=O)CCCC2` as the molecule, how does the relative growth read?
Its relative growth is inactive: 0.95.

Which relative growth does the source give for `O=C1CSC(/N=C/c2ccccc2O)=NN1` here?
The relative growth was inactive: 0.992.

With `C[C@@H]1CN([C@H](C)CO)C(=O)c2cc(NC(=O)Nc3ccccc3)ccc2O[C@@H](C)CCCCO[C@@H]1CN(C)S(=O)(=O)c1cccs1` as the molecule, how does the relative growth read?
Its relative growth is inactive: 1.04.

Which relative growth does the source give for `C[C@H](CO)N1C[C@H](C)[C@H](CN(C)Cc2ccc3c(c2)OCO3)Oc2ccc(NC(=O)CCN3CCOCC3)cc2C1=O` here?
Its relative growth is inactive: 0.992.

How did the relative growth turn out when `C[C@@H]1CCCCO[C@H](CN(C)Cc2ccccc2)[C@@H](C)CN([C@H](C)CO)C(=O)c2cc(NC(=O)CCC(F)(F)F)ccc2O1` was run?
Its relative growth is inactive: 0.978.

Which relative growth does the source give for `COc1ccc2c3c([nH]c2c1)[C@@H](CO)N(C[C@]13CCN(CC1)Cc1ccccc1)C(=O)CN1CCOCC1` here?
The relative growth was inactive: 1.01.

`C[C@H](CO)N1C[C@H](C)[C@H](CN(C)S(C)(=O)=O)Oc2ccc(NS(=O)(=O)c3ccc(F)cc3)cc2CC1=O` was tested. Which relative growth did it give?
Its relative growth is inactive: 0.969.

`C[C@@H]1CN([C@@H](C)CO)C(=O)c2cc(NS(=O)(=O)c3ccc(Cl)cc3)ccc2O[C@H]1CN(C)C(=O)Nc1ccc(C(F)(F)F)cc1` was tested. Which relative growth did it give?
Its relative growth is inactive: 0.988.

For `CC(C)CC#Cc1ccc2c(c1)O[C@H](CN(C)C(=O)c1ccccn1)[C@@H](C)CN([C@@H](C)CO)S2(=O)=O`, which relative growth is on record?
The relative growth was inactive: 1.01.

`C[C@H](CO)N1C[C@H](C)[C@H](CN(C)C(=O)CN2CCOCC2)Oc2ncc(/C=C/c3ccccc3)cc2C1=O` was tested. Which relative growth did it give?
The relative growth was inactive: 0.988.

Which relative growth does the source give for `CN1C(=O)c2cc(NS(C)(=O)=O)ccc2OC[C@@H]2O[C@@H](CC(=O)N3CCOCC3)CC[C@H]21` here?
Its relative growth is inactive: 0.982.

`NNC(=O)c1cccc(C(F)(F)F)n1` was tested. Which relative growth did it give?
Its relative growth is inactive: 1.

How did the relative growth turn out when `Cc1nnc(C(C)C)n1C1C[C@H]2CC[C@@H](C1)N2CC[C@H](NC(=O)C1CCC(F)(F)CC1)c1ccccc1` (some centres not stated) was run?
The relative growth was inactive: 0.999.

For `C[C@@H]1CN([C@H](C)CO)C(=O)c2cccc(NC(=O)Nc3ccc4c(c3)OCO4)c2O[C@@H]1CN(C)S(=O)(=O)c1cn(C)cn1`, which relative growth is on record?
The relative growth was inactive: 0.996.

How did the relative growth turn out when `Cc1noc(C)c1NC(=O)N(C)C[C@@H]1OCCCC[C@@H](C)Oc2ccc(NC(=O)Nc3cccc4ccccc34)cc2C(=O)N([C@H](C)CO)C[C@@H]1C` was run?
The relative growth was inactive: 1.03.

`C[C@H]1CN([C@@H](C)CO)C(=O)c2cccc(NC(=O)NC3CCCCC3)c2O[C@@H]1CN(C)Cc1ccc(-c2ccccc2)cc1` was tested. Which relative growth did it give?
The relative growth was inactive: 0.895.

`CC(C)NC(=O)Nc1ccc2c(c1)CC(=O)N([C@H](C)CO)C[C@@H](C)[C@@H](CN(C)S(=O)(=O)c1cccs1)O2` was tested. Which relative growth did it give?
Its relative growth is inactive: 1.

Which relative growth does the source give for `O=C([C@@H]1[C@@H](CO)[C@@H]2Cn3c(cccc3=O)[C@@H]2N1C(=O)C1CCCC1)N1CCOCC1` here?
The relative growth was inactive: 0.994.

For `CC(/C=C/C(=O)NO)=C\c1ccccc1OCc1cn(-c2cccc(N(S(=O)(=O)c3ccc(C)cc3)S(=O)(=O)c3ccc(C)cc3)c2)nn1`, which relative growth is on record?
The relative growth was inactive: 1.03.

Which relative growth does the source give for `C[C@H]1CCCCO[C@H](CN(C)Cc2ccccc2)[C@@H](C)CN([C@@H](C)CO)C(=O)c2cc(NC(=O)C3CCCCC3)ccc2O1` here?
Its relative growth is inactive: 1.04.
